Measurements from PubChem BioAssay AID1347120 (National Center for Advancing Translational Sciences (NCATS), 2019).
About 930 (0.24%) of roughly 390,000 compounds were called active. The shares of active, inactive and inconclusive entries below differ from those in the screen. Calls come from the whole dose curve; as a rule, active = well fitted activation curve with a large enough effect; inconclusive = small, poorly fitted or top-dose-only effect; inactive = no such curve, though single readings can be large or run the other way. A potency beside an inconclusive call is a rough fit, not a confirmed value.

Assay: qHTS for Suppressors of FUS Proteinopathy: Primary screen using FUS-linked yeast assay; note: nearly all actives have a fitted effect of over 55% in size;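 for growth rescue (activation): plate controls were DMSO vehicle for no effect and reference control for full effect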
Settings: S. cerevisiae FUS-expressing, OD600, 24 h; Potency: growth rescue; growth rescue (activation): at 76.6 µM (top of the series)
Procedure, shortened: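 Yeast FUS proteinopathy model; galactose-induced FUS (2%), starting OD 0.005. Cpds in dilution series, 24hr, 30C, 99% humidity. Abs 600 nm growth. Pos ctrl CP55940 (top 92uM final); neg ctrl DMSO.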
Potency is the fitted concentration of half-maximal effect; tags give direction and shape of the fitted curve.

SMILES | growth rescue (activation) | Potency
Cc1nc(N2CCN(C(=O)c3ccco3)CC2)c2c3c(sc2n1)CC(C)CC3 (stereo not given) | inactive: 36.7% | 
CCOC(=O)C1CCCN(C(=O)c2ccc(-c3ccc([N+](=O)[O-])cc3)o2)C1 (stereo not given) |  | inconclusive: 28.2 µM [activator, partial curve]
Cc1ccc(C)c(N2CCN(C(=O)C34CC5CC(C3)CC(n3nnc(C)n3)(C5)C4)CC2)c1 |  | inconclusive: 35.5 µM [activator, single point]
N#Cc1ccc(C(C(=O)NC2CCCCC2)n2c(=O)c(-c3ccco3)nc3ccccc32)cc1 (stereo not given) |  | inconclusive: 28.2 µM [activator, partial curve, poor fit]
CC(C)=CCc1cc(-c2oc3cc(O)cc(O)c3c(=O)c2O)ccc1O | inactive: -3.82% | 
COC(=O)CCCC1=CC2=CC(=O)C(C)(OC(=O)c3cccs3)C(=O)C2=CN1CC1CC1 (stereo not given) |  | inconclusive: 31.6 µM [activator, single point]
CC(=O)/C(=C/N(C)C)Sc1ccc(C)cc1 |  | inconclusive: 1.12 µM [activator, full curve, poor fit]
O=C(NCCc1ccccc1)c1nc(-c2ccc(Cl)cc2)n2c1CCCCC2 |  | inconclusive: 50.1 µM [activator, single point]
c1ccc(-c2cc(-c3nnco3)c3ccccc3n2)nc1 | inactive: 20% | 
OC(c1ccc(Cl)c(F)c1)c1ncc(-c2ccc(Oc3ccccc3)cc2)[nH]1 (stereo not given) |  | inconclusive: 35.5 µM [activator, single point]
CCOC(=O)CC[C@@]1(C(=O)OCC)C[C@@H](CC(=O)N2CCCC2)C(=O)N2CCCC=C21 | inactive: -14.9% | 
Cc1c(C(=O)Nc2nc(-c3ccc(F)cc3)ns2)oc2ccc(Cl)cc12 | inactive: -8.11% | 
CCN(CC)c1ncnc2c1ncn2[C@H]1CN(Cc2ccco2)C[C@@H](CO)O1 | inactive: -12.3% | 
Cc1c(C(=O)N2CCN(Cc3ccc4c(c3)OCO4)CC2)sc2ncnc(N3CCN(c4ccccc4F)CC3)c12 | inactive: -1.39% | 
COc1ccc(C(C(=O)NCc2ccccc2)n2c(=O)c(-c3cc4ccccc4[nH]3)nc3ccccc32)cc1 (stereo not given) |  | inconclusive: 35.5 µM [activator, single point]
CCNc1nc(NCc2ccc(F)cc2)c2cnn(C)c2n1 | inactive: -3.39% | 
O=C(Nc1ccc(N2CCN(C(=O)c3ccccc3)CC2)c(Cl)c1)c1ccc(Br)o1 |  | inconclusive: 35.5 µM [activator, partial curve, poor fit]
Brc1ccc(-c2nnc(-c3ccccc3Br)o2)cc1 | inactive: 30.5% | 
CC(NC(=O)CSc1n[nH]c(-c2ccccc2Cl)n1)c1nc2ccccc2[nH]1 (stereo not given) | inactive: -13.2% | 
CC(NC(=O)COC(=O)C1CCN(c2ccc(C(F)(F)F)cn2)CC1)c1ccc(Br)cc1 (stereo not given) |  | inconclusive: 39.8 µM [activator, single point]
CCCCC(=O)OC1=C(C(=O)c2ccccc2)N(CCC)S(=O)(=O)c2ccccc21 |  | inconclusive: 31.6 µM [activator, single point]
Cc1sc2ncnc(OCC(=O)N3CCN(S(=O)(=O)c4ccc(Cl)cc4)CC3)c2c1C |  | inconclusive: 44.7 µM [activator, single point]

SMILES | growth rescue (activation) | Potency
CCOC(=O)N1CCN(C(=S)NC(=O)C2CCCC2)CC1 | inactive: -37.2% | 
CCOc1cc(C(=O)NCCc2sc(-c3ccc(F)cc3)nc2C)cc(OCC)c1OCC |  | inconclusive: 20 µM [activator, partial curve, poor fit]
COc1ccc([C@@H]2[C@@H]3C(=O)N(C(C)(C)C)C(=O)[C@@H]3[C@]3(Cc4ccc(Cl)cc4)C(=O)N(c4cccc(Br)c4)C(=O)N23)cc1 | inactive: -5.8% | 
Cc1ccc(S(=O)(=O)Nc2cccc(-c3cn4cccc(C)c4n3)c2)c(C)c1 |  | inconclusive: 28.2 µM [activator, single point]
CCOC(=O)C1CCN(C(=O)c2cccnc2)CC1 | inactive: 16% | 
CCCSc1nnc(NC(=O)c2sc3nc(-c4cccs4)ccc3c2N)s1 |  | active: 12.6 µM
CCn1c(COc2ccc(Cl)cc2)nnc1SCc1nc2ccccc2[nH]1 |  | inconclusive: 50.1 µM [activator, partial curve, poor fit]
COc1cc(/C=C/C(=O)c2ccccc2)cc(OC)c1OC | inactive: 21.6% | 
CC(C)(C)c1ccc(OCCOCCn2cnc3ccccc3c2=O)cc1 |  | inconclusive: 8.91 µM [activator, full curve]
Cc1cccc(OCC(=O)O/N=C(\N)Cc2ccc([N+](=O)[O-])cc2)c1 |  | inconclusive: 6.31 µM [activator, single point]
CCOC(=O)[C@H](CCc1ccccc1)N[C@@H](C)C(=O)N1Cc2cc(OC)c(OC)cc2C[C@H]1C(=O)O | inactive: 31.5% | 
O=C(CSc1nc2ccccc2nc1N1CCOCC1)N1CCN(S(=O)(=O)c2cccc([N+](=O)[O-])c2)CC1 |  | inconclusive: 35.5 µM [activator, single point]
Cc1ccc(/C=C/C(=O)OCn2nnc3ccccc3c2=O)o1 | inactive: 18.9% | 
COc1ccccc1C1C2C(=O)N(c3ccccc3)C(=O)C2ON1c1ccccc1 (stereo not given) |  | inconclusive: 35.5 µM [activator, single point]
COc1cc(/C=C2\SC(N)=NC2=O)ccc1O | inactive: 8.02% | 
COc1cc(/C=C/C(=O)CC(=O)/C=C/c2ccc(O)c(OC)c2)ccc1O |  | inconclusive: 14.1 µM [activator, partial curve, poor fit]
Cc1oc(-c2ccccc2F)nc1CS(=O)(=O)CC(=O)N1CCN(c2ccccc2)CC1 |  | inactive
CCOC(=O)c1cc(C#N)c(NCc2ccccc2)nc1C | inactive: 6.22% | 
CCOC(=O)c1cccc(NC(=O)C(C)n2nc(C)c3c(C)n(-c4ccccc4)nc3c2=O)c1 (stereo not given) |  | inconclusive: 44.7 µM [activator, single point]
Cc1ccccc1COc1ccc(/C=N/NC(=O)c2nnn(-c3nonc3N)c2CN2CCC(C)CC2)cc1 |  | inconclusive: 28.2 µM [activator, single point]
Cc1cccc(CS(=O)(=O)c2nnc([C@H](Cc3ccccc3)NC(=O)OC(C)(C)C)o2)c1 |  | inconclusive: 14.1 µM [activator, partial curve, poor fit]
COc1ccc(NC(=O)Nc2ccc3c(c2)C(=O)N([C@H](C)CO)C[C@H](C)[C@@H](CN(C)S(=O)(=O)c2cccs2)O3)cc1 |  | inconclusive: 28.2 µM [activator, partial curve]

SMILES | growth rescue (activation) | Potency
COc1ccc(N(CC(=O)NN=C2CCCCCCC2)S(=O)(=O)c2ccccc2)cc1Cl |  | inconclusive: 44.7 µM [activator, partial curve, poor fit]
COC(=O)c1cc(NC(=O)c2cc3c(-c4ccccc4F)nn(C)c3s2)cc(C(=O)OC)c1 | inactive: -26.4% | 
CCN(CC)C(=O)c1sc2c(c1C)c(=O)n(-c1ccc(OC)cc1OC)c(=O)n2CC(=O)c1ccccc1 |  | inconclusive: 35.5 µM [activator, partial curve, poor fit]
COc1ccccc1N1CCN(C(=O)COc2ccc(C)cc2Br)CC1 | inactive: 40.8% | 
CCc1cccc(C)c1NC(=O)c1ccc2c(c1)CCN2S(=O)(=O)c1ccc(Cl)cc1 |  | inconclusive: 50.1 µM [activator, single point]
O=C(NCc1ccccc1)c1ccc(NC(=O)C2CC2)cc1 |  | inconclusive: 11.2 µM [activator, single point]
Cc1csc(SCC(=O)Nc2cccc3nsnc23)n1 | inactive: 0.555% | 
CC1CCN(C(=O)CSc2nnc(-c3cc4ccccc4cc3O)n2Cc2ccco2)CC1 |  | inconclusive: 50.1 µM [activator, single point]
CC1CCCCN1S(=O)(=O)c1ccc(N(C(=O)c2cnccn2)C(C(=O)NC2CCCCC2)c2cccs2)cc1 (stereo not given) |  | inconclusive: 17.8 µM [activator, single point]
CCc1nnn2c1Cn1c3ccccc3c(=O)n1[C@@H](C)C2 | inactive: -15.5% | 
COc1ccccc1NC(=O)Cn1c(CCC(=O)O)ccc1-c1ccc(C)cc1 |  | inconclusive: 14.1 µM [activator, partial curve, poor fit]
Cc1ccc(C2C(=O)N(C3CCC(C)CC3)CC(=O)N2C2CCCC2)cc1 (stereo not given) |  | inconclusive: 39.8 µM [activator, partial curve, poor fit]
COc1cccc(CNC(=O)c2cc(-c3ccc(Cl)cc3)n[nH]2)c1 | inactive: -10.7% | 
CCOC(=O)[C@]12CCCC=C1N(Cc1cccc3ccccc13)C(=O)[C@H](CC(=O)N1CCN(C(=O)c3ccco3)CC1)C2 |  | inconclusive: 28.2 µM [activator, partial curve, poor fit]
CCOC(=O)c1n[nH]n2c1nc(=S)c1ccccc12 | inactive: 34.1% | 
COc1cc(OC)c(C(=O)OCN2C(=O)c3ccccc3C2=O)cc1OC | inactive: 1.9% | 
CC(C)(C)c1ccc(C(=O)NCCCN2CCN(CCCNC(=O)c3ccc(C(C)(C)C)cc3)CC2)cc1 |  | inconclusive: 35.5 µM [activator, single point]
COc1cc(/C=C2/C(=O)N(c3ccc(Br)cc3)N=C2C)cc(OC)c1OC |  | inconclusive: 44.7 µM [activator, single point]
COC(=O)[C@]12C[C@H](CC(=O)N3CCCCC3)C(=O)N(Cc3cccc4ccccc34)C1=C[C@H](C(C)(C)C)O[C@@H]2C |  | inconclusive: 22.4 µM [activator, single point]
Cc1ccc(S(=O)(=O)N2CC=C(c3c(C)n(CC(=O)N4CCCC4)c4ccccc34)CC2)cc1C |  | inconclusive: 31.6 µM [activator, single point]
CCOC(=O)c1c(C)oc2ccc(N(C(=O)c3ccncc3)S(=O)(=O)c3ccc(CC)cc3)cc12 |  | inconclusive: 15.8 µM [activator, partial curve, poor fit]
